Test results published in US10294218B2 (VIROSTATICS SRL, priority 2012, dated 2019).

Tested on: Primary T cells
Assay: Cytotoxicity, percentage of viable cells by flow cytometry
Format: cell-based
Procedure: Primary T cells are cultured and treated with different concentrations of the test compound. Viability is analysed by measuring through flow cytometry based techniques the percentage of viable cells, compared to untreated control=100%). Toxic dose 50% (TD50) is calculated.
In Tables 2, 3 and 4, ND means Not Determined.

Structure (SMILES) | TD50 (Toxic dose 50%) [µM]
COc1ccc(Nc2cc(-c3ccccc3O)ncn2)cc1N [Example 70, 2-[6-(3-Amino-4-methoxy-phenylamino)-pyrimidin-4-yl]-phenol] | >10
COc1cc(Nc2cc(-c3ccccc3OC)ncn2)ccc1N [Example 59, 2-Methoxy-N^4-[6-(2-methoxy-phenyl)-pyrimidin-4-yl]-benzene-1,4-diamine] | >2
COc1ccc(Nc2cc(-c3cc(F)ccc3OC)ncn2)cc1C(N)=O [Example 127, 5-[6-(5-Fluoro-2-methoxy-phenyl)-pyrimidin-4-ylamino]-2-methoxy-benzamide] | 7
COc1ccc(Nc2cc(-c3ccccc3OC)ncn2)cc1C(=O)NN [Example 33, 2-Methoxy-5-(6-(2-methoxyphenyl)pyrimidin-4-ylamino)benzohydrazide] | >5
CN1CC[C@H](c2c(O)cc(O)c3c(=O)cc(-c4ccccc4Cl)oc23)[C@H](O)C1 [Flavopiridol, reference compound] | 0.1
COc1ccc(Nc2cc(-c3ccccc3OC)ncn2)cc1CNc1ccccc1 [Example 34, N-(4-Methoxy-3-((phenylamino)methyl)phenyl)-6-(2-methoxyphenyl)pyrimidin-4-amine] | >5
COc1ccc(Nc2cc(-c3ccccc3OC)ncn2)cc1CNS(C)(=O)=O [Example 4, N-(2-Methoxy-5-(6-(2-methoxyphenyl)pyrimidin-4-ylamino)benzyl)methanesulfonamide] | 2.1
CCOc1cc(F)ccc1-c1cc(Nc2ccc(OC)c(C(N)=O)c2)ncn1 [Example 130, 5-[6-(2-Ethoxy-4-fluoro-phenyl)-pyrimidin-4-ylamino]-2-methoxy-benzamide] | 15
COc1ccc(Nc2cc(-c3cc(F)ccc3OC)ncn2)cc1O [Example 122, 5-[6-(5-Fluoro-2-methoxy-phenyl)-pyrimidin-4-ylamino]-2-methoxy-phenol] | >2
COc1ccc(Nc2cc(-c3ccccc3OC)ncn2)cc1C=O [Example 29, 2-Methoxy-5-(6-(2-methoxyphenyl)pyrimidin-4-ylamino)benzaldehyde] | >0.5
COc1ccccc1-c1cc(Nc2ccc(Cl)c(CO)c2)ncn1 [Example 6, (2-Chloro-5-(6-(2-methoxyphenyl)pyrimidin-4-ylamino)phenyl)methanol] | >0.5
COC(=O)c1cc(Nc2cc(-c3ccccc3OC)ncn2)ccc1OC [Example 30, Methyl 2-methoxy-5-(6-(2-methoxyphenyl)pyrimidin-4-ylamino)benzoate] | >0.5
COc1cc(F)c(Nc2cc(-c3cc(F)ccc3OC)ncn2)cc1C(N)=O [Example 144, 4-Fluoro-5-[6-(5-fluoro-2-methoxy-phenyl)-pyrimidin-4-ylamino]-2-methoxy-benzamide] | 12
COc1ccccc1-c1cc(Nc2ccc(Cl)c(C(=O)N3CCCC3)c2)ncn1 [Example 15, (2-Chloro-5-(6-(2-methoxyphenyl)pyrimidin-4-ylamino)phenyl)(pyrrolidin-1-yl)methanone] | >0.5
COc1ccccc1-c1cc(Nc2ccc(Cl)c(C(N)=O)c2)ncn1 [Example 44, 2-Chloro-5-(6-(2-methoxyphenyl)pyrimidin-4-ylamino)benzamide] | >5
COc1ccc(Nc2cc(-c3ccccc3OC)ncn2)cc1CN [Example 43, N-(3-(Aminomethyl)-4-methoxyphenyl)-6-(2-methoxyphenyl)pyrimidin-4-amine] | 2
COc1ccc(Nc2cc(-c3ccccc3OC)ncn2)cc1CO [Example 24, (2-Methoxy-5-(6-(2-methoxyphenyl)pyrimidin-4-ylamino)phenyl)methanol] | >0.5
COc1ccccc1-c1cc(Nc2ccc(N3CCN(C)CC3)c(S(N)(=O)=O)c2)ncn1 [Example 38, 5-(6-(2-Methoxyphenyl)pyrimidin-4-ylamino)-2-(4-methylpiperazin-1-yl)benzenesulfonamide] | <1.5
COc1ccc(Nc2cc(-c3ccccc3OC(C)C)ncn2)cc1N [Example 79, N^1-[6-(2-Isopropoxy-phenyl)-pyrimidin-4-yl]-4-methoxy-benzene-1,3-diamine] | 15
COc1ccc(Nc2cc(-c3ccc(F)cc3OC)ncn2)cc1N [Example 64] | 5
COc1ccc(Nc2cc(-c3ccccc3OC)ncn2)cc1C(=O)O [Example 49, 2-Methoxy-5-[6-(2-methoxy-phenyl)-pyrimidin-4-ylamino]-benzoic acid] | >10

Structure (SMILES) | TD50 (Toxic dose 50%) [µM]
COc1ccc(Nc2cc(-c3cccc(F)c3OC)ncn2)cc1N [Example 81, N^1-[6-(3-Fluoro-2-methoxy-phenyl)-pyrimidin-4-yl]-4-methoxy-benzene-1,3-diamine] | 3
CNS(=O)(=O)Nc1cc(Nc2cc(-c3ccccc3OC)ncn2)ccc1OC [Example 10, (2-Methoxy-5-(6-(2-methoxyphenyl)pyrimidin-4-ylamino)phenyl)(methylsulfamoyl)amine] | 3
COc1ccc(Nc2cc(-c3ccccc3OC)ncn2)cc1O [Example 32, 2-Methoxy-5-(6-(2-methoxyphenyl)pyrimidin-4-ylamino)phenol] | 20
COc1ccccc1-c1cc(Nc2cc(F)c(OC)c(C(N)=O)c2)ncn1 [Example 137, 3-Fluoro-2-methoxy-5-[6-(2-methoxy-phenyl)-pyrimidin-4-ylamino]-benzamide] | >2
CCOc1ccccc1-c1cc(Nc2ccc(OC)c(C(N)=O)c2)ncn1 [Example 129, 5-[6-(2-Ethoxy-phenyl)-pyrimidin-4-ylamino]-2-methoxy-benzamide] | 5
COc1cc(F)c(Nc2cc(-c3ccccc3OC)ncn2)cc1N [Example 92, 4-Fluoro-6-methoxy-N^3-[6-(2-methoxy-phenyl)-pyrimidin-4-yl]-benzene-1,3-diamine] | >20
COc1ccccc1-c1cc(Nc2ccc(N3CCOCC3)c(CO)c2)ncn1 [Example 19, (5-(6-(2-Methoxyphenyl)pyrimidin-4-ylamino)-2-morpholinophenyl)methanol] | >0.5
COc1cc(F)c(Nc2cc(-c3ccc(F)cc3OC)ncn2)cc1C(N)=O [Example 146, 4-Fluoro-5-[6-(4-fluoro-2-methoxy-phenyl)-pyrimidin-4-ylamino]-2-methoxy-benzamide] | 10
COc1ccc(Nc2cc(-c3ccccc3OC)ncn2)cc1NS(=O)(=O)NC1CCCCC1 [Example 13, (2-Methoxy-5-(6-(2-methoxyphenyl)pyrimidin-4-ylamino)phenyl) (cyclohexylsulfamoyl)amine] | 5
CCOc1ccc(F)cc1-c1cc(Nc2cc(F)c(OC)c(C(N)=O)c2)ncn1 [Example 142, 5-[6-(2-Ethoxy-5-fluoro-phenyl)-pyrimidin-4-ylamino]-3-fluoro-2-methoxy-benzamide] | >20
COc1ccccc1-c1cc(Nc2cc(N)c(OC)c(F)c2)ncn1 [Example 88, 5-Fluoro-4-methoxy-N^1-[6-(2-methoxy-phenyl)-pyrimidin-4-yl]-benzene-1,3-diamine] | >20
CCOc1ccccc1-c1cc(Nc2cc(C(N)=O)c(OC)cc2F)ncn1 [Example 145, 5-[6-(2-Ethoxy-phenyl)-pyrimidin-4-ylamino]-4-fluoro-2-methoxy-benzamide] | 15
COc1ccc(Nc2cc(-c3ccc(F)cc3OC)ncn2)cc1O [Example 123, 5-[6-(4-Fluoro-2-methoxy-phenyl)-pyrimidin-4-ylamino]-2-methoxy-phenol] | 7
COc1ccccc1-c1cc(Nc2ccc(C(N)=O)c(Cl)c2)ncn1 [Example 132, 2-Chloro-4-[6-(2-methoxy-phenyl)-pyrimidin-4-ylamino]-benzamide] | >10
CCOc1cc(F)ccc1-c1cc(Nc2cc(C(N)=O)c(OC)cc2F)ncn1 [Example 147, 5-[6-(2-Ethoxy-4-fluoro-phenyl)-pyrimidin-4-ylamino]-4-fluoro-2-methoxy-benzamide] | 15
COc1ccc(Nc2cc(-c3ccccc3OC)ncn2)cc1NS(C)(=O)=O [Example 9, N-(2-Methoxy-5-(6-(2-methoxyphenyl)pyrimidin-4-ylamino)phenyl)methanesulfonamide] | >1.5
CCOc1cc(F)ccc1-c1cc(Nc2ccc(OC)c(N)c2)ncn1 [Example 73, N^1-[6-(2-Ethoxy-4-fluoro-phenyl)-pyrimidin-4-yl]-4-methoxy-benzene-1,3-diamine] | 6
COc1ccc(-c2cc(Nc3ccc(OC)c(N)c3)ncn2)cc1 [Example 66, 4-Methoxy-N^1-[6-(4-methoxy-phenyl)-pyrimidin-4-yl]-benzene-1,3-diamine] | >10
CCOc1ccc(Nc2cc(-c3ccccc3OC)ncn2)cc1C(N)=O [Example 111, 2-Ethoxy-5-[6-(2-methoxy-phenyl)-pyrimidin-4-ylamino]-benzamide] | 12
COc1ccc(Nc2cc(-c3ccc(F)cc3OC)ncn2)cc1C(N)=O [Example 128, 5-[6-(4-Fluoro-2-methoxy-phenyl)-pyrimidin-4-ylamino]-2-methoxy-benzamide] | 5
COC(=O)c1ccc(Nc2cc(-c3ccccc3OC)ncn2)cc1OC [Example 133, 2-Methoxy-4-[6-(2-methoxy-phenyl)-pyrimidin-4-ylamino]-benzoic Acid Methyl Ester] | >10
